In paper PMC4336329 (PLoS ONE, 2015):
The whole screen tested about 310,000 compounds, of which about 2,200 (0.71%) showed an effect of 50% or more. Effects have a minus sign here. The list shows a part of the results.

Molecular target: human ether-à-go-go-related gene (hERG) potassium channel (human, UniProt Q12809)
Assay: primary screen, population patch clamp on CHO cells stably expressing hERG

Sequence of human ether-à-go-go-related gene (hERG) potassium channel (Q12809 whole entry, looked up): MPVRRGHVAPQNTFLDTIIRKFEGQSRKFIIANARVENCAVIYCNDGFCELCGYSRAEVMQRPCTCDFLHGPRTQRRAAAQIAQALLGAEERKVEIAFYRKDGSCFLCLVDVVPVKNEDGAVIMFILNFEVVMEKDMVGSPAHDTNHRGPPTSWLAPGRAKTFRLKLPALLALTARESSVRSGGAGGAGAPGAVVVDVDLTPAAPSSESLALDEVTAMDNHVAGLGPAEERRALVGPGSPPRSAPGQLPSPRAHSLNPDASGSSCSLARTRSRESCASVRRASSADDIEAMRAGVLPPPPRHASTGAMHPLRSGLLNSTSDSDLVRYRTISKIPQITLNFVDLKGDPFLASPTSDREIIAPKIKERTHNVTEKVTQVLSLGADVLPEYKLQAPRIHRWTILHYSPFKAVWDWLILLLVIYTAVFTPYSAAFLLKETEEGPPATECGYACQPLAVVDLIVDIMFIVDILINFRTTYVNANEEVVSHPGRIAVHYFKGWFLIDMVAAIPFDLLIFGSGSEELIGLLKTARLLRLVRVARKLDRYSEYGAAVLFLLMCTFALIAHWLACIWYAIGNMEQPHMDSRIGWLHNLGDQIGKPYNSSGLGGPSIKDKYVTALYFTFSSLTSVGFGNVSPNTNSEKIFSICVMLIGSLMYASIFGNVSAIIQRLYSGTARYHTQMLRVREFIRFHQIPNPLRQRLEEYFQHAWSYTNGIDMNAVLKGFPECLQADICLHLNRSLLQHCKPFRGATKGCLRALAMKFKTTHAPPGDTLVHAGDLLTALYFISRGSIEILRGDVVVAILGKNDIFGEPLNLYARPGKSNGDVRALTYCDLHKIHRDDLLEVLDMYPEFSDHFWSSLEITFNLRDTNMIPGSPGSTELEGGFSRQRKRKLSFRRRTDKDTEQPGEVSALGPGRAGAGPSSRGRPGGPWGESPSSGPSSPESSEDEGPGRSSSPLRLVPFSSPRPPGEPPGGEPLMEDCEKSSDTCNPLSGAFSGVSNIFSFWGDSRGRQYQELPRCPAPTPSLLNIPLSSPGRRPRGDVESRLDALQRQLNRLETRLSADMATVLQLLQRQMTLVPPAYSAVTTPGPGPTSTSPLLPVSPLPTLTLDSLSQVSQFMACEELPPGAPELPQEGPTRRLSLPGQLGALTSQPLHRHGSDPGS

Compound	hERG current change (%, negative = inhibition) at 1uM [%]
CC(=O)CC(=O)Nc1ccn(-c2ccccc2)n1	4.69
Cc1cccc(NC(=O)CCN2CCC(C)CC2)c1	11.5
CC(=O)Nc1cc(-c2ccccc2)nn1Cc1ccc(Cl)cc1	15
Cc1onc(-c2ccccc2Cl)c1C(=O)OCC(=O)c1c(N)n(C)c(=O)n(C)c1=O	6.3
COc1cccc(Cn2c(=O)sc3ccccc3c2=O)c1	12
CC(C)Cn1cnc2c1c(=O)[nH]c(=O)n2Cc1ccccc1	13
COc1ccc(NC(=S)Nn2cnnc2)c(OC)c1	12.3
O=C(CSc1nc(-c2ccccc2)cc(=O)[nH]1)Nc1ccc(F)c(F)c1	12.9
Cc1cc(-c2ccc(Br)cc2)n[nH]1	0.796
CC(C)CN(CC(C)C)C(=O)CS(=O)(=O)Cc1ccccc1	10
COc1ccc(Cl)cc1-c1nc(SCC(=O)N(C)CCC#N)n[nH]1	9.76
COC(=O)C1=C(C)NC(C)=C(C(=O)OC)C1c1ccc(-c2cccc([N+](=O)[O-])c2)o1	17
CCn1c(CCc2ccccc2)nnc1SCC(N)=O	13.3
O=C1OC(N2CCN(C(=O)c3ccco3)CC2)c2ccccc21 (stereo not shown)	9.25
CCCSc1nc(C)cc(C)c1S(C)(=O)=O	15.1
COCCn1c(C)cc(/C=C2/NC(=O)N(Cc3ccc(C)cc3)C2=O)c1C	15.1
CC(=O)c1c(C)[nH]c(C(=O)C(C)Sc2nnc(NC3CC3)s2)c1C (stereo not shown)	-0.0946
C=CC(C)(C)c1[nH]cnc1/C=C1\NC(=O)C(C(C)C)NC1=O (stereo not shown)	7.83
COc1ccc(NC(=O)C2C(c3ccccc3)C2(Cl)Cl)c(OC)c1 (stereo not shown)	11.3
O=C(CCC1CCCN(Cc2ccc3c(c2)OCCO3)C1)NCc1ccccc1F (stereo not shown)	9.98
COc1ccc(OC)c(NC(=O)C2CC(C)=C(C)CC2C(=O)O)c1 (stereo not shown)	8.14
Cc1onc(-c2c(Cl)cccc2Cl)c1C(=O)c1c[nH]c(C(=O)NCC2CCCO2)c1 (stereo not shown)	13.4
CCOc1ccc(N=Cc2c(C)[nH]n(-c3nc4ccccc4[nH]3)c2=O)cc1	5.73

Compound	hERG current change (%, negative = inhibition) at 1uM [%]
CC(=O)c1cccc(NC(=O)CN2C(=O)COc3ccc(S(=O)(=O)N4CCOCC4)cc32)c1	16.7
CCC(CC)NC(=O)c1ccc(Cl)cc1	20.1
O=C(O/N=C1\CCCc2ccccc21)C1CC1	12
O=C(CCc1nnc(Cc2ccc3c(c2)OCO3)o1)N(CC1CCC1)CC1CCCO1 (stereo not shown)	9.77
CC(=O)c1c(N)nc2n(c1=O)CCCCC2	9.28
Cc1cc(NC(=O)CSc2nc3sc(C)c(C)c3c(=O)n2C2CCCC2)no1	12.5
COc1ccc(OCCC(=O)NC2CCCCC2)cc1	14.2
COc1ccccc1/C=C/C=N/NC(=O)CN1CCN(S(=O)(=O)c2ccc(C)cc2)CC1	-3.2
CN(CC(=O)Nc1ccccc1Br)C(=O)CNC(=O)c1ccc(Oc2ccccc2)cc1	9.1
C=CCNc1nc(N2CCCC2)nc2ccccc12	-66
O=C(O)c1ccccc1Sc1ncnc2sc3c(c12)CCC3	-2.14
COC(=O)C(CC(C)C)NC(=O)c1ccc([N+](=O)[O-])c(C)c1 (stereo not shown)	8.28
O=S1(=O)CC/C(=N\Nc2ccccc2)c2ccsc21	15.4
Cc1csc(NC(=O)CSc2nnc(-c3ccccc3)o2)n1	6.57
CCCNC(=O)C(Cc1cccc(OC)c1)NC(=O)c1ccc(C#N)cc1 (stereo not shown)	6.05
NC(=O)C(c1ccccc1)C1CCCC1 (stereo not shown)	16.6
O=C(NCCc1ccc(C(F)(F)F)cc1)C1CC(=O)N(c2ccc3c(c2)OCCO3)C1 (stereo not shown)	3.54
O=C(O)c1nccnc1C(=O)Nc1ccccc1N1CCOCC1	-3.19
CC1CCN(C(=O)CN(Cc2ccc(Cl)cc2)S(C)(=O)=O)CC1	13.1
CC(C)CCn1c(Br)nc2c1c(=O)n(CC(N)=O)c(=O)n2C	15.1
CC(=O)N/C(=N/c1nc(C)cc(C)n1)Nc1cc(C)cc(C)c1	-1.18
CCOc1ccc2nc(/N=C/c3c(C)[nH]n(-c4ccc(C)cc4)c3=O)sc2c1	7.53
CCCCn1c(NCCN(C)C)nc2c1c(=O)[nH]c(=O)n2C	2.26

Compound	hERG current change (%, negative = inhibition) at 1uM [%]
Brc1ccc(OCc2cn3ccccc3n2)cc1	-1.3
Cc1sc2ncnc(SCC(=O)NC(C)C(C)C)c2c1C (stereo not shown)	11.4
Cc1cccc(NC(=S)N2CCC(c3nc4ccccc4s3)CC2)c1	9.69
Cn1nnc2ccccc2c1=O	12.6
Cc1cc(C)nc(SCc2ccc(C(=O)N/N=C3\CCCC(=O)C3)cc2)n1	26.6
COC(=O)c1ccccc1CCC(C)=O	10.1
CC(C)OC(=O)CSc1nc(Cc2cccs2)nc2ccccc12	5.56
Cc1nn(CC(=O)OC(C)C(=O)Nc2ccccc2[N+](=O)[O-])c(C)c1[N+](=O)[O-] (stereo not shown)	-2
Cc1cccc2c(SCC(N)=O)nc(-c3ccccc3)nc12	6.86
Cc1ccc(S(=O)(=O)NCCC(=O)OCC(=O)Nc2ccccc2Cl)cc1	15.8
O=C1C(=O)N(CC(=O)N2CCCC2)c2ccccc21	8.34
O=C(COC(=O)CCOc1ccccc1)Nc1cc(S(=O)(=O)N2CCCCC2)ccc1Cl	-0.399
O=C(NCC1CCCO1)c1cc2cc(Cl)ccc2[nH]1 (stereo not shown)	15.1
CCOc1ccc(CCNC(=O)CCc2nnc3ccc(N4CCCC4)nn23)cc1OCC	1.7
CCc1ccc(-c2cc(C(F)(F)F)n3nc(C(=O)Nc4c(C)nn(Cc5ccccc5C)c4C)cc3n2)s1	6.45
O=C(CSc1nnc(C2CC2)n1Cc1ccccc1)Nc1cccnc1Cl	12.1
COc1ccc(-c2c(-c3ccccc3OC)oc3ccccc23)cc1F	8.13
CCOC(=O)c1[nH]c(C)c(C(=O)NCCCOC(C)C)c1C	14.7
O=C(CN1CCCCCC1)NCC1CCCO1.O=C(O)C(=O)O (stereo not shown)	13.7
Cc1oc(-c2ccccc2F)nc1CS(=O)(=O)CC(=O)NCCCN(C)C1CCCCC1	9.7
CSc1ccc(CN(C)C(=O)C(c2ccccc2)c2ccccc2)cc1	5.46
CCN(CCn1cccn1)C(=O)c1cc(COc2ccccc2SC)on1	3.51
CCC(=O)Nc1ccc2nc3c(=O)[nH]c(=S)[nH]c3nc2c1	20.7

Compound	hERG current change (%, negative = inhibition) at 1uM [%]
C=CCn1c(SCC(=O)NC2CCCCC2)nc2ccccc2c1=O	15
Brc1ccc2[nH]c3nc(SCCN4CCOCC4)nnc3c2c1	9.78
CCN(CC)C(=O)CSc1nnc(-c2ccc(O)cc2)n1CC1CCCO1 (stereo not shown)	21.8
Cc1ccccc1NC(=O)C(=O)NCC1CCCN1S(=O)(=O)c1cccs1 (stereo not shown)	20.3
O=C(CSc1nc2cccnc2n1Cc1ccccc1)NC1CCCCC1	-15.6
Cc1cc(C)cc(S(=O)(=O)c2cnc3ccccc3n2)c1	26.8
Cc1nc(C)c(-c2csc(NCCc3ccccc3)n2)s1.O=C(O)C(=O)O	14.2
COc1ccc(OC)c(C(C)NC(=O)C(C)Cc2ccccc2)c1 (stereo not shown)	11
Cc1ccc(C(=O)N2c3ccc(F)cc3CCC2C)o1 (stereo not shown)	14.1
COc1ccccc1N1CCN(C(=O)CSc2nnc3c4ccccc4n(CC(=O)O)c3n2)CC1	8.39
Cc1cccc(NC(=O)CSc2nc(=O)n(CCN3CCOCC3)c3c2CCCC3)c1C	7.72
CCOc1cc2c(cc1OCC)-n1cccc1C(c1cccc(OCC)c1O)NC2.Cl (stereo not shown)	10.6
CN(c1ccccc1)S(=O)(=O)c1ccc(C(=O)Nc2nnc(C3CC3)o2)cc1	6.03
O=c1c2ccccc2nc2n1CC/C2=C\N1CCN(c2ccc([N+](=O)[O-])cc2)CC1	-62.1
CCN(CC(=O)Nc1c(F)cccc1F)C(=O)c1cc2c(cc1Cl)N1CCCCCC1=NS2(=O)=O	19.5
COC(=O)c1cc(NC(=O)CCc2c(C)nc3ncnn3c2C)cc(C(=O)OC)c1	-1.04
O=C(Nc1ccncc1)C1CCN(S(=O)(=O)c2ccccc2)CC1	9.44
CCn1c(SC/C=C/c2ccccc2)nnc1-c1cccs1	-12.9
C/C(=N\Nc1cc(C(F)(F)F)ccc1Cl)c1ccncc1	15.4
CN(C)c1ccc(/C=C2\SC(=S)N(Nc3ncc(C(F)(F)F)cc3Cl)C2=O)cc1	0.807
CCOC(=O)C1CCCN(S(=O)(=O)c2ccc3ccccc3c2)C1 (stereo not shown)	-3.9
CCN1CCN(C(c2cccs2)C(C)NC(=O)C(C)C)CC1 (stereo not shown)	12.9
